Test results reported in the supplement of paper PMC9433436.
± gives the standard deviation of the averaged measurements. Whole data set: some 4,100 sequences, median “relative kcat/Km (krel) vs genomic leader AAAGAU” near 1.7, cut for the highest 2% near 6.5. This is a selection; strong and weak results do not stand in their true shares.

Target: T1, E. coli RNase P holoenzyme (M1 P RNA + rnpA protein) (UniProt P0A7Y8)
T1 sequence: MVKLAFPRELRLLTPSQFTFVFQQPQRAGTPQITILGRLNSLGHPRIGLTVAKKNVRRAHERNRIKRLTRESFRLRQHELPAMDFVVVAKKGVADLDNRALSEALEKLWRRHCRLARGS
Experiment: relative kcat/Km (krel) vs genomic leader AAAGAU (relative (reference leader = 1)); higher = faster RNase P cleavage
Procedure: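 HTS-Kin: a pool of ptRNA-Met (21C construct) with all 4096 combinations of 5' leader nucleotides N(-6) to N(-1) was processed in vitro by E. coli RNase P (P RNA + rnpA/C5 protein) under multiple-turnover conditions at 37 C, pH 8, 17.5 mM MgCl2. Residual substrate was Illumina-sequenced at several fractions reacted, and relative kcat/Km (krel) was computed by internal competition kinetics, calibrated to the genomic leader (AAAGAU = 1). The listed hexamer is the varied N(-6)..N(-1) leader (DNA letters), and it sits between a fixed 5' stem-loop flank (GCAUGCACGAAAGUGCGUGCUAUGAA) and the mature tRNA-Met starting GGCUACGUAGCUCAGUUGG. Two technical replicates are averaged.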

[1] = fraction of substrate reacted: ~9-10% (9.79% repeat 1, 9.1% repeat 2)
[2] = fraction of substrate reacted: ~13-16% (15.68% repeat 1, 13.17% repeat 2)
[3] = fraction of substrate reacted: ~26-29% (28.66% repeat 1, 26.4% repeat 2)

Sequence | relative kcat/Km [1] | relative kcat/Km [2] | relative kcat/Km [3]
TCCATC | 3.7 ± 1.8 | 3.95 ± 0.47 | 6.33 ± 2.3
GCTCTA | 0.921 ± 0.12 | 0.567 ± 0.2 | 1.21 ± 0.26
GCCTCA | 3.93 ± 1.6 | 4.02 ± 0.47 | 5.77 ± 2.1
TGCATG |  |  | 1.12 ± 0.18
CGTCTT | 3.18 ± 0.98 | 3.53 ± 0.78 | 4.33 ± 1.6
CGGCTC | 0.705 ± 0.047 |  | 
GATCGA | 2.37 ± 0.82 | 2.79 ± 1.2 | 4.26 ± 1.2
GTTGAA | 2.16 ± 0.94 | 2.71 ± 0.089 | 3.54 ± 1.2
AGGTCG |  |  | 0.539 ± 0.51
AGGTCT |  | 1.17 ± 0.5 | 0.922 ± 0.2
AAGTCG |  |  | 1.33 ± 0.073
AGGGGT |  |  | 0.973 ± 0.015
GTATTT | 3.06 ± 2 | 3.71 ± 0.4 | 5.37 ± 1.9
ATGAGG |  |  | 0.439 ± 0.23
GACCGG |  |  | 0.689 ± 0.39
TAAGCC | 2.57 ± 0.66 | 2.16 ± 0.87 | 1.67 ± 0.62
TACAAT | 2.84 ± 0.75 | 4.74 ± 0.94 | 7.14 ± 3.4
AAAGCT | 1.03 ± 0.26 | 0.52 ± 0.21 | 0.689 ± 0.075
GGGTTT |  | 0.999 ± 0.63 | 1.28 ± 1.2
ACTTGC | 2.61 ± 0.94 | 3.14 ± 0.38 | 4.33 ± 1.3
ACGTTC | 2.18 ± 0.36 | 2.45 ± 0.76 | 3.59 ± 1.4
TGATGC | 2.32 ± 0.093 | 3.4 ± 0.52 | 4.58 ± 1.8
TCATAT | 4.21 ± 1.4 | 5.49 ± 1 | 8.18 ± 3.4
CATGGT |  |  | 1.66 ± 1.1
TCAGGC | 1.52 ± 0.94 |  | 
TCAGAG | 1.26 ± 0.99 | 0.934 ± 0.39 | 1.86 ± 0.028
GGCACA | 1.43 ± 0.55 | 1.26 ± 0.95 | 2.08 ± 0.64

Sequence | relative kcat/Km [1] | relative kcat/Km [2] | relative kcat/Km [3]
CAGCCA | 0.956 ± 0.31 | 0.833 ± 0.06 | 1.84 ± 0.13
TCGAGA | 1.37 ± 0.46 | 2.27 ± 1.3 | 3.57 ± 1.3
TACTGC | 3.83 ± 1.5 | 4.1 ± 0.86 | 5.96 ± 1.5
TACTTT | 3.77 ± 1.4 | 4.69 ± 0.54 | 
GATGAA | 1.41 ± 0.62 | 1.12 ± 1 | 2.65 ± 0.29
CAGCTA | 1.51 ± 0.56 | 1.21 ± 0.27 | 1.85 ± 0.51
CACTTG |  | 0.924 ± 0.61 | 2.34 ± 0.15
CCGTCA | 1.74 ± 0.082 | 2.11 ± 0.3 | 2.46 ± 0.8
TTGCCG |  |  | 0.519 ± 0.071
TGAAAG |  | 1.15 ± 0.57 | 2.65 ± 0.8
CTTCCT | 2.3 ± 0.41 | 2.56 ± 0.74 | 2.87 ± 1.1
ATAATG |  |  | 1.34 ± 0.22
CGGCCT | 0.9 ± 0.34 |  | 0.69 ± 0.39
GAAACT | 0.428 ± 0.12 | 1.21 ± 0.23 | 1.44 ± 0.24
CCATGT | 1.03 ± 0.21 | 1.23 ± 0.52 | 1.17 ± 0.29
TCGACA | 1.25 ± 0.27 | 1.39 ± 0.21 | 1.62 ± 0.039
ATTAAA | 2.47 ± 0.74 | 3.1 ± 0.085 | 4.44 ± 1.6
GGTATG |  | 0.21 ± 0.0069 | 1.63 ± 0.33
TTCAAT | 4.1 ± 1.6 | 5.53 ± 0.71 | 
CGTCTC | 3.46 ± 1.4 | 3.17 ± 0.15 | 4.08 ± 1.2
CCCGCC | 2.78 ± 0.39 | 4.24 ± 2 | 4.94 ± 1.9
GATAGA | 2.54 ± 0.52 | 3.28 ± 1.1 | 4.68 ± 2.2
TCCCGG | 1.09 ± 0.43 | 0.823 ± 0.2 | 1.31 ± 0.12
CCGGCA |  | 0.373 ± 0.043 | 
CGTTTC | 2.71 ± 0.41 | 3.42 ± 0.7 | 4.39 ± 1.7
CACCGT |  |  | 1.45 ± 0.87
CCCTAC | 4.32 ± 1.6 | 5.08 ± 2.3 | 7.32 ± 3.6

Sequence | relative kcat/Km [1] | relative kcat/Km [2] | relative kcat/Km [3]
ATATTT | 2.52 ± 0.84 | 3.27 ± 0.55 | 4.42 ± 1.7
TTGAAA | 1.85 ± 0.91 | 2.75 ± 0.27 | 4.27 ± 1.5
TGTAAG | 1.42 ± 0.7 | 1.55 ± 0.3 | 3.25 ± 1
ATACCG | 1.17 ± 0.45 | 0.388 ± 0.054 | 0.985 ± 0.26
CCAGCC | 2.19 ± 0.25 | 1.21 ± 0.83 | 1.98 ± 0.67
AGGCCC |  | 0.946 ± 0.56 | 0.674 ± 0.24
GTCCCG | 1.8 ± 0.86 | 1.62 ± 0.64 | 3.16 ± 1.1
ACTGCT | 1.54 ± 0.5 | 1.16 ± 0.11 | 0.708 ± 0.3
CGATTC | 2.31 ± 0.59 | 2.7 ± 0.093 | 3.23 ± 0.51
GAATTT | 2.52 ± 0.75 | 2.52 ± 0.61 | 3.89 ± 1.9
AAGGTC |  |  | 1.41 ± 1.2
GTTCGA | 2.34 ± 0.56 | 3.28 ± 0.97 | 5.18 ± 2.2
TACCAT | 3.78 ± 1.5 | 5.08 ± 1.6 | 
AATGGG | 0.672 ± 0.43 |  | 
AACAGC | 2.64 ± 0.14 | 4 ± 0.94 | 4.83 ± 1.9
TGCGTA | 1.11 ± 0.33 | 1.31 ± 0.36 | 1.34 ± 0.86
CAGCCG |  |  | 0.58 ± 0.46
TATTGA | 3.87 ± 0.33 | 4.42 ± 1.1 | 6.93 ± 3.1
CCGGTT |  | 1.23 ± 0.56 | 0.722 ± 0.15
GCCGGA | 0.199 ± 0.19 |  | 0.499 ± 0.11
CTGTGA | 1.54 ± 0.4 | 1.69 ± 0.021 | 2.49 ± 0.65
CCACAT | 1.66 ± 0.71 | 2.28 ± 0.88 | 3.62 ± 1.1
ACCGAT | 1.71 ± 0.53 | 1.62 ± 0.77 | 2.16 ± 0.95
CTACAT | 3.38 ± 1.2 | 3.92 ± 0.91 | 5.19 ± 2
ATAGAC | 2.35 ± 0.59 | 3.04 ± 0.16 | 3.83 ± 1.4
GTGACC | 1.12 ± 0.28 | 1.17 ± 0.58 | 1.6 ± 0.33
CTATAG | 2.47 ± 1.2 | 1.823 ± 0.012 | 3.4 ± 0.44

Sequence | relative kcat/Km [1] | relative kcat/Km [2] | relative kcat/Km [3]
CTTACT | 1.64 ± 0.29 | 1.54 ± 0.47 | 2.71 ± 0.57
ATTGAT | 0.788 ± 0.097 | 0.733 ± 0.17 | 1.01 ± 0.033
TTTCCT | 2.84 ± 0.75 | 2.73 ± 0.23 | 3.67 ± 1.3
ACCACC | 2.49 ± 0.91 | 1.27 ± 0.33 | 3.18 ± 0.88
CGCCCC | 2.78 ± 1.1 | 2.38 ± 0.093 | 3.47 ± 1
TAAATC | 1.49 ± 1 | 1.45 ± 0.52 | 2.15 ± 0.9
CCAAAC | 2.63 ± 1.5 | 1.63 ± 0.81 | 2.42 ± 0.85
TAGTTA | 2.3 ± 1.2 | 2.7 ± 0.067 | 3.74 ± 1.3
TTGCAA | 1.54 ± 0.37 | 2.13 ± 0.72 | 2.92 ± 0.97
GCGGTA | 1.66 ± 1.3 |  | 1.51 ± 1
AACGCG | 1.32 ± 0.5 | 0.857 ± 0.52 | 1.47 ± 0.078
CTTATC | 2.17 ± 0.3 | 2.23 ± 0.22 | 3.15 ± 1.2
ATAACT | 1.28 ± 0.37 | 1.21 ± 0.2 | 1.79 ± 0.75
GCCAGG | 0.252 ± 0.12 |  | 1.05 ± 0.036
TAATAA | 3.59 ± 2 | 4.41 ± 0.57 | 5.5 ± 2.2
ACGACG | 1.28 ± 0.76 |  | 1.41 ± 0.34
TTATTT | 2.98 ± 1.5 | 3.82 ± 0.087 | 5.29 ± 2.3
CAGGGT |  |  | 1.38 ± 0.19
GGTAAA | 1.91 ± 1.8 | 1.55 ± 0.29 | 2.14 ± 0.88
GAAGAC | 2.98 ± 1.4 | 2.1 ± 0.083 | 3.1 ± 0.58
CGCCGA | 2.62 ± 0.76 | 3.85 ± 0.96 | 5.55 ± 2
AGTTAT | 2.78 ± 0.19 | 4.36 ± 0.82 | 7 ± 3.2
TATCCT | 2.16 ± 0.37 | 2.81 ± 0.74 | 3.59 ± 1.8
TTTTTT | 3.31 ± 1.9 | 3.41 ± 0.27 | 4.9 ± 1.7
